Where a name gives a salt, the structure may show the parent alone. Hit rate of the full screen: of about 1,300 compounds, about 40 (3%) showed activity. This is one part of the list.
System: Plasmodium falciparum NF54/iGP1_RE9H ulg8 stage V gametocytes
Assay: gametocyte viability (luciferase signal relative to DMSO control) (% of DMSO control); higher = less gametocytocidal activity, active = 50 or less
Settings: exposure time: 72 h
Method in brief: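 NF54/iGP1_RE9Hulg8 stage V gametocytes (day 12; ~2.5% gametocytemia, 3% hematocrit) in medium with 0.5% Albumax II were added to 96-well plates of nanolitre-spotted compounds (10 mM DMSO stocks), giving 10 µM or 1 µM, one well each. Plates were incubated 72 h at 37 °C. Then 90 µl was mixed with 10 µl D-luciferin (30 mg/ml) and luminescence was read on an IVIS Lumina II. Viability is relative to the mean of plate DMSO vehicle controls.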

| Structure (SMILES) | gametocyte viability (concentration: 1 µM) | gametocyte viability (concentration: 10 µM) |
| --- | --- | --- |
| Cc1ccccc1N1C(=O)c2cc(S(N)(=O)=O)c(Cl)cc2NC1C (stereo unspecified) [Metolazone] | inactive: 80.8 | inactive: 75.5 |
| Cc1cc(-n2c(=O)[nH]c(=O)n(C)c2=O)ccc1Oc1ccc(SC(F)(F)F)cc1 [Toltrazuril] | inactive: 86.4 | inactive: 84.2 |
| C=CC1=C(C(=O)O)N2C(=O)[C@@H](NC(=O)/C(=N\OCC(=O)O)c3csc(N)n3)[C@H]2SC1 [Cefixime] | inactive: 82.4 | inactive: 87.1 |
| OCCOCCN1CCN(C(c2ccccc2)c2ccc(Cl)cc2)CC1 (stereo unspecified) [Hydroxyzine dihydrochloride] | inactive: 88 | inactive: 86.4 |
| CC(=O)Nc1ccc(O)cc1 [Acetaminophen] | inactive: 85.7 | inactive: 83.1 |
| COc1ccc2[nH]c([S+]([O-])Cc3ncc(C)c(OC)c3C)nc2c1 (stereo unspecified) [Omeprazole] | inactive: 82.9 | inactive: 83.9 |
| OC(CCN1CCCCC1)(c1ccccc1)C1CCCCC1 (stereo unspecified) [Trihexyphenidyl-D,L Hydrochloride] | inactive: 90.7 | inactive: 94.9 |
| N=C(N)N/N=C/c1c(Cl)cccc1Cl [Guanabenz acetate] | inactive: 95.7 | inactive: 85 |
| Brc1c(NC2=NCCN2)ccc2nccnc12 [Brimonidine L-Tartrate] | inactive: 80.6 | inactive: 84.6 |
| CN(C)CCOC(=O)COc1ccc(Cl)cc1 [Meclofenoxate hydrochloride] | inactive: 82.6 | inactive: 88.4 |
| COc1ccc(C[C@@H]2c3cc(OC)c(OC)cc3CC[N@+]2(C)CCC(=O)OCCCCCOC(=O)CC[N@@+]2(C)CCc3cc(OC)c(OC)cc3[C@H]2Cc2ccc(OC)c(OC)c2)cc1OC [Cisatracurium besylate] | inactive: 96 | inactive: 92.6 |
| Nc1cc(-c2ccncc2)c[nH]c1=O [Amrinone] | inactive: 78.7 | inactive: 83.9 |
| CC(N)C12CC3CC(CC(C3)C1)C2 (stereo unspecified) [Rimantadine Hydrochloride] | inactive: 87.2 | inactive: 81.8 |
| CN(CCOc1ccc(CC2SC(=O)NC2=O)cc1)c1ccccn1 (stereo unspecified) [Rosiglitazone Hydrochloride] | inactive: 90.8 | inactive: 90.1 |
| CCC(=O)OCC(=O)[C@@]1(OC(=O)CC)[C@H](C)C[C@H]2[C@H]3[C@H]([C@@H](O)C[C@@]21C)[C@@]1(C)C=CC(=O)C=C1C[C@H]3Cl [Alclometasone dipropionate] | inactive: 83.6 | inactive: 78.3 |
| O=C1c2ccccc2S(=O)(=O)N1CCCCN1CCN(c2ncccn2)CC1 [Ipsapirone] | inactive: 95.5 | inactive: 97 |
| Cn1c([N+](=O)[O-])cnc1COC(N)=O [Ronidazole] | inactive: 89 | inactive: 86 |
| CC(Oc1ccccc1)C(=O)N[C@@H]1C(=O)N2[C@@H]1SC(C)(C)[C@@H]2C(=O)O (stereo partly specified) [Phenethicillin potassium salt] | inactive: 91.7 | inactive: 90.9 |
| N[C@@H](C(=O)N[C@@H]1C(=O)N2C(C(=O)O)=C(Cl)CS[C@H]12)c1ccccc1 [Cefaclor hydrate] | inactive: 83.7 | inactive: 80.5 |

| Structure (SMILES) | gametocyte viability (concentration: 1 µM) | gametocyte viability (concentration: 10 µM) |
| --- | --- | --- |
| COc1ccc(C(=O)NCc2ccc(OCCN(C)C)cc2)cc1OC [Itopride] | inactive: 92.2 | inactive: 86.8 |
| C[C@@H]1NC(=O)NC1=O [Methylhydantoin-5-(L)] | inactive: 98.3 | inactive: 99.7 |
| CN1CCN(C2=Nc3cc(Cl)ccc3Nc3ccccc32)CC1 [Clozapine] | inactive: 79.8 | inactive: 79 |
| Cc1cc(=O)n(-c2ccccc2)n1C [Antipyrine] | inactive: 101 | inactive: 95.5 |
| Clc1ccc(COC(Cn2ccnc2)c2ccc(Cl)cc2Cl)c(Cl)c1 (stereo unspecified) [Miconazole] | inactive: 88.3 | inactive: 87.8 |
| NC12CC3CC(CC(C3)C1)C2 [Adamantamine fumarate] | inactive: 85.3 | inactive: 82.4 |
| Cc1ccc(-c2ncc(Cl)cc2-c2ccc(S(C)(=O)=O)cc2)cn1 [Etoricoxib] | inactive: 100 | inactive: 87.6 |
| CC1CCc2c(N3CCC(O)CC3)c(F)cc3c(=O)c(C(=O)O)cn1c23 (stereo unspecified) [Nadifloxacin] | inactive: 85.2 | inactive: 81.3 |
| CC(=O)N(O)CCCCCNC(=O)CCC(=O)N(O)CCCCCNC(=O)CCC(=O)N(O)CCCCCN [Deferoxamine mesylate] | inactive: 90.6 | inactive: 82.7 |
| CCN[C@H]1C[C@H](C)S(=O)(=O)c2sc(S(N)(=O)=O)cc21 [Dorzolamide hydrochloride] | inactive: 80.2 | inactive: 87.2 |
| CC(C)/N=c1\cc2n(-c3ccc(Cl)cc3)c3ccccc3nc-2cc1Nc1ccc(Cl)cc1 [Clofazimine] | inactive: 89.3 | inactive: 97.6 |
| O=C1Cc2cc(CCN3CCN(c4nsc5ccccc45)CC3)c(Cl)cc2N1 [Ziprasidone  Hydrochloride] | inactive: 82.9 | inactive: 71.6 |
| O=c1cc(-c2ccc(O)c(O)c2)oc2cc(O)cc(O)c12 [Luteolin] | inactive: 81.1 | inactive: 73.3 |
| CC(C)(C(=O)c1cccnc1)c1cccnc1 [Metyrapone] | inactive: 86.8 | inactive: 76.4 |
| CN(C)c1ccc(O)c2c1C[C@H]1C[C@H]3[C@H](N(C)C)C(=O)C(C(N)=O)=C(O)[C@@]3(O)C(=O)C1=C2O [Minocycline hydrochloride] | inactive: 83.1 | inactive: 83.3 |
| CN1CCc2cccc3c2[C@H]1Cc1ccc(O)c(O)c1-3 [R(-) Apomorphine hydrochloride hemihydrate] | inactive: 85.5 | inactive: 86.9 |
| CCC(NC(C)C)C(O)c1ccc(O)c(O)c1 (stereo unspecified) [Isoetharine mesylate salt] | inactive: 82.4 | inactive: 84.1 |
| CCC(Cc1c(I)cc(I)c(N)c1I)C(=O)O (stereo unspecified) [Iopanoic acid] | inactive: 87 | inactive: 85.7 |
| CO[C@@]1(NC(=O)CSCC#N)C(=O)N2C(C(=O)O)=C(CSc3nnnn3C)CS[C@@H]21 [Cefmetazole sodium salt] | inactive: 94.1 | inactive: 88.9 |

From the supplement of paper PMC12297408
